Reference: PubChem BioAssay AID588855 (National Center for Advancing Translational Sciences (NCATS), 2011)
In all, about 410,000 compounds went through this assay and about 5,000 (1.2%) were called active. The shares of active, inactive and inconclusive entries below differ from those in the screen. The call rests on the fitted dose curve; in most records, active means well fitted inhibition curve with a large enough effect; inconclusive means small, poorly fitted or top-dose-only effect; inactive means no such curve, though single readings can be large or run the other way. Where the call is inconclusive, the potency comes from a doubtful curve fit.

Experiment: qHTS for Inhibitors of TGF-b; further: nearly all actives have a fitted effect of over 65% in size
Details: HepG2 CAGA-GFP TGF-b/SMAD3 reporter, GFP fluorescence, 18 h, TGF-beta stimulated, 500 pg/mL final; series mostly up to 46.1 µM; activity, negative = inhibition: at the top concentration
Summary of the method: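 Cell-based qHTS in HEPG2 carrying a CAGA-GFP Smad reporter; compounds added before 500 pg/mL final TGF-beta, 18 h incubation at 37 degrees C, GFP fluorescence quantified per cell by imaging cytometry.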
On the % scale 0 is the no-effect control and ±100 the full control effect; potency means the concentration at half of the fitted maximal effect; tags describe the fitted curve by direction and shape.

Row | SMILES | Potency | activity, negative = inhibition
1 | CC(Nc1ccc(-c2nc(-c3cccnc3)no2)cc1[N+](=O)[O-])c1ccccc1 (stereo not drawn) | inconclusive: 0.112 µM [inhibitor, full curve, poor fit] | –
2 | CC(=O)Nc1cc(-c2cccnc2)cn2c(-c3ccc(F)cc3)cnc12 | – | inactive: -19.2%
3 | O=C1CSC(=S)N1c1cccnc1 | – | inactive: -3.63%
4 | C=CCc1ccc(O)c(-c2ccc(O)c(CC=C)c2)c1 | inconclusive: 25.1 µM [inhibitor, single point] | –
5 | COc1ccc(N2CCN(C(=O)CCNS(=O)(=O)c3ccc(Br)s3)CC2)cc1 | – | inactive: -5.63%
6 | COCCn1c(C)cc(O)c(C(c2ccccc2)N2CCN(c3ccccc3F)CC2)c1=O (stereo not drawn) | – | inactive: 26.9%
7 | O=C(CNC(=O)c1ccc(Br)o1)NNC(=O)c1cccc(Cl)c1 | inconclusive: 20 µM [inhibitor, single point] | –
8 | O=C(CSc1cn(CCNC(=O)c2ccccc2F)c2ccccc12)Nc1ccc2c(c1)OCCO2 | inconclusive: 35.5 µM [inhibitor, single point] | –
9 | ON/C=N/C(=S)Nc1ncc(C(F)(F)F)cc1Cl | inconclusive: 7.08 µM [inhibitor, partial curve, poor fit] | –
10 | COC(=O)C1=C(C(=O)OC)SC(=C2C(=S)C(C)(C)N(C(=O)C(C)C)c3ccccc32)S1 | inconclusive: 35.5 µM [inhibitor, single point] | –
11 | COc1cc(OC)cc(C(=O)Nn2cc(C(=O)N3CCN(C)CC3)c3ccccc3c2=O)c1 | inconclusive: 0.501 µM [inhibitor, full curve] | –
12 | Nc1nn(S(=O)(=O)c2cccc3nsnc23)cc1-c1ccc(Br)cc1 | inconclusive: 14.1 µM [inhibitor, partial curve] | –
13 | Cc1ccc(C(=O)OCC(=O)Nc2cc(C(C)(C)C)nn2-c2ccccc2)c(O)c1 | inconclusive: 15.8 µM [inhibitor, single point] | –
14 | CN(C)C(CNC(=O)CCNC(=O)c1ccc(Cl)cc1)c1ccco1 (stereo not drawn) | – | inactive: -19.1%
15 | N#C/C(=C\c1ccco1)Sc1nc2ccccc2s1 | inconclusive: 2.51 µM [inhibitor, partial curve] | –
16 | N=c1ccn(Cc2ccccc2Cl)cc1 | – | inactive: -30%
17 | O=[N+]([O-])c1cc(Oc2cccnc2)cc([N+](=O)[O-])c1 | inconclusive: 35.5 µM [inhibitor, single point] | –
18 | CC1=NCCN1S(=O)(=O)c1cc([N+](=O)[O-])ccc1Cl | inconclusive: 3.55 µM [inhibitor, single point] | –
19 | CC(C)OC(=O)c1c(NC(=O)c2cccc(C(F)(F)F)c2)sc2c1CCCC2 | inconclusive: 6.31 µM [inhibitor, single point] | –
20 | CC1=NNC(=O)/C1=C\c1cn(-c2ccccc2)nc1-c1ccc(Cl)cc1 | active: 3.55 µM | –
21 | COc1cc(SC)ccc1C(=O)N1CCN(Cc2ccc3c(c2)OCO3)CC1 | inconclusive: 15.8 µM [inhibitor, single point] | –
22 | O=C1CC(c2ccccc2)Sc2ccccc2N1Cc1ccccc1F (stereo not drawn) | inconclusive: 31.6 µM [inhibitor, single point] | –
23 | COc1ccc(-c2c(-c3ccccc3)n(C)c3ccccc23)cc1 | inconclusive: 35.5 µM [inhibitor, single point] | –

Row | SMILES | Potency | activity, negative = inhibition
24 | Cc1cc(S(=O)(=O)Nc2ccc3ccccc3c2)c(C)s1 | inconclusive: 35.5 µM [inhibitor, single point] | –
25 | CSc1ccc(NC(=O)Nc2cccn(Cc3ccccc3F)c2=O)cc1 | inconclusive: 3.16 µM [inhibitor, single point] | –
26 | O=C(NCc1cccc(Br)c1)c1cc(-c2ccccc2)nn1CC1CC(c2cccnc2)=NO1 (stereo not drawn) | inconclusive: 11.2 µM [inhibitor, partial curve] | –
27 | C[C@H]1COC(=O)[C@H](NC(=O)OCC2c3ccccc3-c3ccccc32)C/C=C\C[C@H](CC(=O)N(CCO)Cc2ccccc2)C(=O)N1 | inconclusive: 35.5 µM [inhibitor, single point] | –
28 | COc1ccc(CNC(=O)c2cc3c(=O)n(Cc4ccco4)ccc3nc2C)c(OC)c1 | inconclusive: 11.2 µM [inhibitor, partial curve, poor fit] | –
29 | CNC(=O)COc1coc(CN2CCN(c3ccccc3F)CC2)cc1=O | – | inactive: 0.0032%
30 | Cc1onc(-c2ccccc2Cl)c1C(=O)N1CCN(c2ccc(F)cc2)CC1 | – | inactive: 15.3%
31 | Cc1ccccc1CS(=O)(=O)c1ccc(C(=O)N2CCOCC2)cc1[N+](=O)[O-] | – | inactive: -21%
32 | CC(C)c1ccc(OCC(=O)Nc2ccc(S(=O)(=O)Nc3ncccn3)cc2)cc1 | – | inactive: -9.23%
33 | Cc1ccccc1C(=O)Nc1nnc(CC(=O)N/N=C/c2cn(Cc3ccccc3)c3ccccc23)s1 | inconclusive: 11.2 µM [inhibitor, partial curve, poor fit] | –
34 | CC(C)Oc1ccc(CN2CCC2(C)C(=O)Nc2ccc(Cl)c(Cl)c2)cc1 (stereo not drawn) | inconclusive: 8.91 µM [inhibitor, partial curve] | –
35 | CCCCCCCCC(c1nc2ccccc2[nH]1)N1CCN=C1c1cc2ccccc2[nH]1 (stereo not drawn) | inconclusive: 35.5 µM [inhibitor, partial curve, poor fit] | –
36 | Cc1ccc(-c2csc(N/N=C/C=C/c3ccccc3)n2)cc1 | – | inactive: -3.97%
37 | CN(C)C(=O)CSc1cccc2cccnc12 | inconclusive: 5.62 µM [inhibitor, full curve, poor fit] | –
38 | CCc1ccc2c(c1)NC(=O)C2(C)Cc1ccc(Cl)s1 (stereo not drawn) | inconclusive: 35.5 µM [inhibitor, single point] | –
39 | Cc1ccc(C)c(NC(=O)CSc2nc3nc(-c4cccs4)cc(C(F)(F)F)c3c(=O)[nH]2)c1 | active: 15.8 µM | –
40 | O=C1CCNc2cc3ccccc3cc21 | inconclusive: 35.5 µM [inhibitor, single point] | –
41 | CCOC(=O)NC1(C(F)(F)F)N=C(c2ccccc2)NC1=O (stereo not drawn) | – | inactive: 0.277%
42 | Cc1ccc(N2CCN(C(=O)c3c(C)oc4ncn(C)c(=O)c34)CC2)c(C)c1 | – | inactive: -0.672%
43 | O=C1CC(=O)C(n2cncn2)C(c2c(F)cccc2Cl)C1 (stereo not drawn) | inconclusive: 6.31 µM [inhibitor, single point] | –
44 | O=C(Nc1nnc(-c2ccccc2)o1)C1CCCN1S(=O)(=O)c1cccs1 (stereo not drawn) | – | inactive: 0.439%
45 | Cc1ccccc1NC(=O)c1cc(C(=O)c2cc(Cl)ccc2O)cn(-c2ccccc2C)c1=O | active: 7.08 µM | –
46 | COc1ccc(NC(=O)Oc2ccccc2)cc1Cl | inconclusive: 12.6 µM [inhibitor, single point] | –

Row | SMILES | Potency | activity, negative = inhibition
47 | CCN(CC(=O)Nc1cccc(OC)c1)CC(=O)Nc1ccc(C)cc1Cl | inconclusive: 6.31 µM [inhibitor, single point] | –
48 | Fc1ccccc1COc1ccc(C(=S)N2CCCC2)cc1 | inconclusive: 25.1 µM [inhibitor, single point] | –
49 | COc1ccc(-c2[nH]c(-c3ccc(Cl)cc3)nc2SCC(=O)Nc2nccs2)cc1 | inconclusive: 1 µM [inhibitor, full curve, poor fit] | –
50 | COc1ccc(/C=N/Nc2ccc(C(=O)O)cc2)cc1Br | – | inactive: 3.08%
51 | CN(C)c1ccc(C(C(=O)NCc2ccccc2)N(Cc2cccnc2)C(=O)c2snc(C(N)=O)c2N)cc1 (stereo not drawn) | – | inactive: 23.1%
52 | Cc1sc2nc(COC(=O)c3ccc(Cl)c(N)c3)[nH]c(=O)c2c1C | – | inactive: -11.9%
53 | Cc1ccc(NC(=O)CN(C)CC(=O)Nc2ccc(N3CCOCC3)cc2)cc1F | – | inactive: -7.23%
54 | Cc1cccc(CNC(=O)c2cnc3c(-c4cccc(C)c4)c(C)nn3c2C)c1 | – | inactive: 6.16%
55 | CCc1ccc([C@@H]2CC=C(C(=O)O)CN2S(=O)(=O)c2ccc(C)cc2)cc1 | inconclusive: 11.2 µM [inhibitor, partial curve, poor fit] | –
56 | O=C(Nc1cccc(O)c1)c1c(O)c2ccccc2[nH]c1=O | inconclusive: 22.4 µM [inhibitor, single point] | –
57 | CCOC(=O)CN(C(=O)CSc1nnc(-c2cccc(OC)c2)o1)c1ccc(F)cc1 | – | inactive: -3.06%
58 | COc1ccccc1NC(=O)C(=O)NNS(=O)(=O)c1ccc2ccccc2c1 | inconclusive: 35.5 µM [inhibitor, single point] | –
59 | OC(COC(c1ccc(F)cc1)c1ccc(F)cc1)CN1CCc2ccccc2C1 (stereo not drawn) | inconclusive: 35.5 µM [inhibitor, single point] | –
60 | CCN(Cc1ccccc1)C(c1ccc(C)cc1)c1nnnn1C(C)(C)CC (stereo not drawn) | inconclusive: 20 µM [inhibitor, single point] | –
61 | COc1ccc(C2=CCN3CCCCC3C2)c(-c2ccc(OC)c(OC)c2)c1 (stereo not drawn) | inconclusive: 35.5 µM [inhibitor, single point] | –
62 | COc1ccc(C(=O)C2CCCN(Cc3cccn3-c3nccs3)C2)cc1F (stereo not drawn) | inconclusive: 17.8 µM [inhibitor, single point] | –
63 | O=C(Nc1nc(-c2ccc(Oc3ccccc3)cc2)cs1)C1=COCCO1 | inconclusive: 11.2 µM [inhibitor, partial curve, poor fit] | –
64 | CC(C)(C)c1cc(CSC(=S)NC2CCS(=O)(=O)C2)c(Br)c(C(C)(C)C)c1 (stereo not drawn) | inconclusive: 35.5 µM [inhibitor, single point] | –
65 | CCCCN1C(=O)C(O)(CC(=O)c2ccc(CC)cc2)c2cc(Br)ccc21 (stereo not drawn) | inconclusive: 20 µM [inhibitor, partial curve, poor fit] | –
66 | Cc1ccc2c(c1)C(c1ccccc1)N(C(=O)COc1ccc(Cl)cc1Cl)CC(=O)N2 (stereo not drawn) | inconclusive: 14.1 µM [inhibitor, single point] | –
67 | COC(=O)c1[nH]c2ccccc2c1NS(=O)(=O)c1ccc(F)c(C)c1 | inconclusive: 0.112 µM [inhibitor, full curve, poor fit] | –
68 | COc1cccc(C(=O)Nc2nc(-c3nnn(-c4ccccc4C(F)(F)F)c3C)ns2)c1 | active: 12.6 µM | –
